According to the supplement of paper PMC4166925:
± gives the standard deviation of the averaged measurements. The full ranking holds about 33,000 sequences; the median of “E-score (dimensionless, -0.5 to 0.5)” is about -0.049, and the highest 2% start at about 0.37. The list shows a part of the results.

Each sequence was assayed on T1, PmTbr T-box DNA-binding domain (GST fusion) (assay: PBM E-score of 8-mer (E-score (dimensionless, -0.5 to 0.5)); Tbr is Tbrain of the sea star Patiria miniata (Pm) or the sea urchin Strongylocentrotus purpuratus (Sp); higher = stronger binding preference; most listed sequences are background and not binding sites). Details: the construct has about 5 more residues each side.
T1 sequence: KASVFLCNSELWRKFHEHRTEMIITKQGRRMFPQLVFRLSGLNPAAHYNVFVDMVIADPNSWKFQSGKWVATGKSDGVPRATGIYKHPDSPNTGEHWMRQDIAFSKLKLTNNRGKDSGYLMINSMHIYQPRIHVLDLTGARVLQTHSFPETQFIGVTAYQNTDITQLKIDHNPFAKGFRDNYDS
How it was run: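 Using the Universal PBM Analysis Suite, every ungapped 8-mer received an enrichment E-score averaged over duplicate arrays. Probe intensities came from double-stranded Universal Agilent oligonucleotide arrays incubated with 200 nM GST-fused Tbr T-box DNA-binding domain in PBS (pH 7.5). That protein was expressed in BL21 E. coli at 20 °C and purified by glutathione affinity chromatography.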

Sequence	PBM E-score of 8-mer
TCCGGGCA	-0.052 ± 0.032
CCGAGTTC	-0.2711 ± 0.00051
CGATACGC	-0.00908 ± 0.043
CCTCGATC	0.0184 ± 0.014
CACCAATC	0.26 ± 0.023
ACGAGTCT	-0.145 ± 0.05
CTGGCAGA	-0.0491 ± 0.083
CTACGTCA	-0.0358 ± 0.0037
CACGTTAG	0.317 ± 0.0066
ACAGCGGT	0.0264 ± 0.093
GGCGTTAA	0.377 ± 0.024
GTCAACTA	0.0717 ± 0.051
ATCACGGA	-0.0356 ± 0.0075
ACAGAGCC	-0.0935 ± 0.015
CCGTGTCG	0.144 ± 0.045
ACTCGATA	0.145 ± 0.037
CATCGAAA	-0.147 ± 0.092
AATGTCGG	-0.0392 ± 0.026
CCCCTATA	-0.132 ± 0.02
AATACGCG	0.069 ± 0.078
TATCATCA	-0.0199 ± 0.08
GAATCAGC	-0.184 ± 0.045
CCAAAGCG	0.105 ± 0.0049
ATATTGGG	-0.224 ± 0.017
AGTTAACT	-0.159 ± 0.025

Sequence	PBM E-score of 8-mer
CATGTCAA	-0.00945 ± 0.065
AATGACCC	-0.141 ± 0.071
ATCTCAAC	0.0437 ± 0.036
CCCTATTA	-0.153 ± 0.013
ACAGGGTG	0.339 ± 0.042
AGAGCGCG	0.147 ± 0.045
CAGGCCAA	-0.135 ± 0.042
CAATGAAC	-0.0316 ± 0.025
ACACCACG	0.3698 ± 0.0022
ACCATGAG	-0.0468 ± 0.087
CTATCGTA	-0.125 ± 0.019
CAATTTTC	0.0462 ± 0.0084
AGATCCTC	-0.222 ± 0.038
AGGGGGCA	-0.2819 ± 0.00085
ATCTGTTA	0.25 ± 0.037
CGATCCCA	-0.16 ± 0.14
AAGAAACT	-0.00862 ± 0.064
AACATAAT	-0.06 ± 0.035
ATTATGGC	-0.00349 ± 0.0047
CAAAATGA	-0.0745 ± 0.041
GTGGTATA	-0.0535 ± 0.055
CCCCCTGA	-0.0635 ± 0.0079
ACGAGCAA	0.00985 ± 0.047
CCTTATCC	-0.0714 ± 0.035
GCCCAGGC	-0.195 ± 0.014

Sequence	PBM E-score of 8-mer
ACTGCAAT	0.0329 ± 0.01
CGCCGAAG	-0.206 ± 0.045
ACCACTGG	0.0522 ± 0.047
CGACCACA	0.0507 ± 0.089
ACTCGCGA	0.38 ± 0.0065
GACGCGCC	0.192 ± 0.0041
AGCAGCAG	-0.231 ± 0.0088
ACAACGAA	-0.164 ± 0.099
ACAATTCC	-0.0659 ± 0.015
ATCGTTTA	0.0333 ± 0.024
AGCTGGAG	-0.155 ± 0.11
ATGCGCCC	-0.259 ± 0.0049
GACAGTAA	0.153 ± 0.037
TGAATAAA	0.123 ± 0.056
ATGAAGGG	-0.229 ± 0.05
CGTTGGGA	-0.0875 ± 0.00071
CTACGGAG	-0.298 ± 0.03
GCCAGACC	-0.0581 ± 0.014
AGGGCTTG	-0.279 ± 0.087
CAAGCTAC	-0.142 ± 0.065
CGGGATAG	-0.0663 ± 0.1
CCGCCGGA	-0.0902 ± 0.034
GCTCACGA	-0.0428 ± 0.019
GATTGTCC	-0.233 ± 0.009
ATGCGTGA	0.328 ± 0.023

Sequence	PBM E-score of 8-mer
ATGCTGTC	0.0533 ± 0.011
AACCAAGC	-0.181 ± 0.0088
ACAGTTAC	0.0628 ± 0.0017
AACCACGC	0.0172 ± 0.086
ACAATATC	0.0442 ± 0.011
CGGTCGGA	-0.277 ± 0.052
CTATGGTA	-0.1961 ± 0.0016
GACCATAA	0.141 ± 0.011
CGCGTACA	0.0502 ± 0.0097
AGTGCGTC	-0.147 ± 0.029
TAAAGGAA	-0.237 ± 0.0043
CGTAGACC	-0.276 ± 0.096
AGCGTTCG	0.214 ± 0.068
ATAGGGCG	0.0669 ± 0.081
ATAAGCCA	-0.233 ± 0.015
ACAGGTGG	0.331 ± 0.022
CGCCCACA	0.156 ± 0.047
ATGCTACA	-0.00854 ± 0.041
AAGGTAGC	0.136 ± 0.031
CCTGCACG	0.0214 ± 0.042
CGTAAGAA	-0.0628 ± 0.11
CTATTGAC	-0.0881 ± 0.003
AGAGCTGC	-0.0211 ± 0.037
AGTATAGC	0.0478 ± 0.033
GATAATCC	0.0503 ± 0.0044

Sequence	PBM E-score of 8-mer
AAGTCCCT	-0.0395 ± 0.055
GGAGAAGA	-0.2914 ± 0.0019
TCCCCTCA	-0.125 ± 0.032
CTTTGCTA	0.0888 ± 0.023
GCGTTTAC	-0.00072 ± 0.015
CGCCGTAA	0.014 ± 0.027
CTGCTCGA	-0.217 ± 0.031
AAACTCGA	-0.034 ± 0.065
CAGAAGAC	-0.188 ± 0.011
CGCGTGCC	0.0704 ± 0.011
AGGTCCAG	-0.165 ± 0.041
ACCATATG	0.075 ± 0.015
TAGCCCCA	-0.119 ± 0.0082
ACACATGG	0.28 ± 0.018
CCCCCTCC	-0.118 ± 0.0016
GTGAGGCA	0.0693 ± 0.054
CTAAGGAA	-0.129 ± 0.078
ATGTGCCC	-0.0261 ± 0.068
GAGAACGC	0.224 ± 0.024
CCTGAGTC	-0.069 ± 0.067
ACCATGTA	0.024 ± 0.022
ATTTGGTG	0.12 ± 0.045
ATTCCGTA	-0.153 ± 0.013
ATCACCGG	-0.319 ± 0.02
GCTTAAAC	0.0501 ± 0.0056

Sequence	PBM E-score of 8-mer
CCGCATAG	-0.047 ± 0.042
CTCGCCAA	0.147 ± 0.018
CATTACTC	-0.199 ± 0.05
AGGAGCAG	-0.185 ± 0.042
AAACCATT	-0.102 ± 0.019
GTAATGAA	0.00185 ± 0.052
ACGCACCC	0.195 ± 0.0077
CTCTGTAC	-0.00281 ± 0.017
ATCAGAAT	-0.106 ± 0.065
CTACGTTC	-0.172 ± 0.024
GAACGCTC	0.0583 ± 0.052
AGCCCGCC	-0.209 ± 0.066
AGCAATCA	-0.188 ± 0.026
ATATGACC	-0.0991 ± 0.077
CTTCATGA	-0.163 ± 0.081
CAGCATGG	-0.0939 ± 0.11
GAAATACC	-0.114 ± 0.027
GAAGCCCC	-0.376 ± 0.011
AGGAGAGG	-0.163 ± 0.055
AGGCAGGG	-0.186 ± 0.049
ATAGGAAT	-0.328 ± 0.021
CAGCGAGC	0.207 ± 0.077
GCCCCGCC	-0.0692 ± 0.0097
CCTTCATA	0.156 ± 0.061
ACTAACGA	0.0528 ± 0.0092

Sequence	PBM E-score of 8-mer
CGTCGTGA	-0.026 ± 0.018
AGGGGACT	-0.0959 ± 0.02
ACCTTTGG	0.0854 ± 0.013
GAGTTAGC	0.129 ± 0.053
GTGCGCAA	0.097 ± 0.0053
CGAACGCG	0.241 ± 0.022
TCCCTCGA	-0.134 ± 0.035
CGTTTCGC	0.205 ± 0.038
GCAACTAA	-0.0834 ± 0.1
GTCGTCTA	-0.189 ± 0.028
CAAGAAGC	-0.102 ± 0.07
AGGCCTCA	0.00805 ± 0.0099
AGTAAACA	0.0849 ± 0.082
CACCCGGA	0.283 ± 0.025
CCCCGGAC	-0.207 ± 0.019
CAACGGAG	-0.088 ± 0.033
CTTACAGC	-0.0711 ± 0.032
CCACTCAG	-0.0862 ± 0.14
CTTACTAC	-0.168 ± 0.0026
ATCGCCCC	0.0187 ± 0.0065
GGAGGGAC	-0.204 ± 0.027
CAGGACTG	-0.173 ± 0.075
